System: Vcap cells (androgen receptor (+) prostate cancer cells)
Experiment: CTG cell proliferation assay (CellTiter-Glo), compounds alone or in combination

SMILES | Survival rate of Vcap cells (1 μM tested compound in combination with 1 μM B001 and 1 μM Abiraterone acetate) [%] | Survival rate of Vcap cells (1 μM tested compound in combination with 1 μM B001 and 1 μM ODM-201) [%] | Survival rate of Vcap cells (10 μM tested compound in combination with 1 μM B001 and 1 μM ODM-201) [%] | Survival rate of Vcap cells (1 μM tested compound in combination with 1 μM B001 and 1 μM prednisone and 1 μM Galeterone) [%] | Survival rate of Vcap cells (10 μM tested compound in combination with 1 μM B001 and 1 μM prednisone and 1 μM Galeterone) [%]
CC1(C)C(=O)N(c2ccc(C#N)c(C(F)(F)F)c2F)C(=S)N1c1ccc(CCCc2ncco2)nc1 [AR2-5] | 66.6 | 57.3 | 58.6 |  | 
CC1(C)C(=O)N(c2ccc(C#N)c(C(F)(F)F)c2F)C(=S)N1c1ccc(CCCC#N)c(F)c1 [AR2-4] |  |  |  | 54.8 | 31.2
